Test results as given in PubChem BioAssay AID1745853 (National Center for Advancing Translational Sciences (NCATS), 2022).
“And” between values parts separate entries of the source, which are not always exact repeats. Equal entries are not always repeated. This is one part of the list. The main result of the screen is listed elsewhere. These columns were measured beside it and carry no call.

Assays:
Test in all cases: Primary Screen for Target Class Profiling of Small Molecule Inhibitors of Methyltransferases
[1] = biological target: Glycine N-methyltransferase (Homo sapiens) (UniProt Q14749); details: purified enzyme, MTase-Glo SAH luminescence; measured here: GNMT inhibition; at 40 µM; stronger effect = lower value
Method in brief: (§1)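 Each enzyme was reacted with SAM and its substrate, with compounds tested once at 40 uM; SAH formed was read by MTase-Glo luminescence.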

[2] = biological target: Guanidinoacetate N-methyltransferase (Homo sapiens) (UniProt Q14353); details: purified enzyme, MTase-Glo SAH luminescence; measured here: GAMT inhibition; at 40 µM; stronger effect = lower value
Method in brief: as §1

[3] = biological target: Histamine N-methyltransferase (Homo sapiens) (UniProt P50135); details: purified enzyme, MTase-Glo SAH luminescence; measured here: HNMT inhibition; at 40 µM; stronger effect = lower value
Method in brief: as §1

[4] = biological target: Nicotinamide N-methyltransferase (Homo sapiens) (UniProt P40261); details: purified enzyme, MTase-Glo SAH luminescence; measured here: NNMT inhibition; at 40 µM; stronger effect = lower value
Method in brief: as §1

[5] = biological target: Phenylethanolamine N-methyltransferase (Homo sapiens) (UniProt P11086); details: purified enzyme, MTase-Glo SAH luminescence; measured here: PNMT inhibition; at 40 µM; stronger effect = lower value
Method in brief: as §1
On the % scale 0 is the no-effect control and ±100 the full control effect.

SMILES | activity change, negative = inhibition [1] | activity change, negative = inhibition [2] | activity change, negative = inhibition [3] | activity change, negative = inhibition [4] | activity change, negative = inhibition [5]
Cc1ccnn1CC(=O)N(Cc1ccncc1)Cc1cccc(OCCc2ccc(F)cc2)c1 | -1.45% | 0.789% | 0.844% | 1.37% | 3.02%
Cn1c(=O)c2ccc(C(=O)NC3CCCC3)cc2n2c(=O)n(CC(=O)Nc3ccccc3F)nc12 | -1.67% | -0.843% | -1.54% | -1.67% | -1.41%
C=CC(=O)Nc1cccc(Nc2nc(Nc3ccc(Oc4ccnc(C(=O)NC)c4)cc3)ncc2F)c1 | -23.8% | -10.1% | -66% | -51.3% | -10%
N[C@H]1C[C@H]1c1ccc(-c2cccc(O)c2)cc1 | 2.75% and -0.147% | 6.42% and -6.74% | 5.84% and 6.52% | -6.39% and -11.1% | 3.71% and 2.5%
COc1ccc(-c2cc3n(n2)CC(C)(C(=O)NCc2ccccc2OC)N(c2ccc(C(C)C)cc2)C3=O)cc1 (stereo unspecified) | -3.86% | 0.147% | -4.22% | -6.5% | -8.6%
Cc1cc(C(=O)N2CCCC3(C2)Nc2cccnc2NC3=NCc2ccccc2)nn1C (stereo unspecified) | -4.09% | -3.29% | -2.99% | -2.08% | 5.11%
CC(C)CNC(=O)c1ccc2c(=O)n(Cc3ccccc3)c3nn(Cc4ccccc4Cl)c(=O)n3c2c1 | 5.54% | 0% | 9.74% | 8.41% | 7.72%
COc1ccc2c(c1)C[C@H](C(=O)Nc1ccc(-c3cn[nH]c3)cc1OCCN(C)C)CO2 | -0.144% | -3.99% | -54.8% | -16.1% | -10.7%
CC1(C)CCCC2(C)C(CO)C(CO)=CCC12 (stereo unspecified) | 1.54% | -1.14% | 13.2% | -16.2% | -11.3%
CCC(NS(=O)(=O)c1cc(-n2cccn2)ccc1OC)C1CC(O)C1 (stereo unspecified) | -0.777% | -0.967% | 1.3% | -3.48% | 1.3%
CCn1nc(C)c(-c2cc(C(=O)N3CCCCCCNC(=O)CC3)no2)c1C | -2.84% | 1.74% | 0.732% | -1.35% | -17.7%
O=C1CN(Cc2c(F)cccc2Cl)S(=O)(=O)c2ccccc2N1Cc1ccc(Cl)cc1 | 6.41% | 0.038% | 3.55% | -0.615% | 2.12%
Cn1cccc1-c1noc(C2CCN(C(=O)CCCc3ccccc3)C2)n1 (stereo unspecified) | -4.36% | -1.91% | 0.467% | -6.49% | -1.28%
OCCOCCn1cnc(-c2ccccc2)c1-c1ccccc1Cn1cccn1 | -0.958% | 0.084% | 0.193% | -3.46% | -0.105%
CCc1cc2c(cc3n2CC(C)(C(=O)NC2CCCCCC2)N(c2ccccc2C)C3=O)s1 (stereo unspecified) | 7.94% | 2.18% | 7.14% | 13.4% | 3.93%
CC1CCCN(C(=O)Cn2c(=O)oc3cc(S(=O)(=O)NCc4ccccc4)ccc32)C1 (stereo unspecified) | 2.14% | 1.9% | 2.03% | -3.97% | -0.395%
c1ccc(-c2[nH]ncc2-c2ccnc3ccccc23)nc1 | – | 8.01% | – | -11.2% | 4.82%
COc1ccc(C(=O)Cn2nc3n(CC(C)C)c(=O)c4ccccc4n3c2=O)cc1 | 1.28% | 0.455% | 3.9% | 4.67% | 5.05%
CCc1nc(-c2c3n(c(=O)n(CC(=O)OC)c2=O)CCCC3)no1 | 1.32% | -5.07% | 0.245% | 0.105% | 3.37%
O=C(CCc1cnccn1)N1CCC(CCC(=O)N2CCC(Cc3ccccc3)CC2)CC1 | -2.9% | -0.737% | -0.974% | -3.64% | -0.045%
O=C(c1cccc(OC2CN(CC3CC=CCC3)C2)c1)N1CCCC1 (stereo unspecified) | -2.61% | 1.18% | -19.1% | -4.92% | -2.92%

SMILES | activity change, negative = inhibition [1] | activity change, negative = inhibition [2] | activity change, negative = inhibition [3] | activity change, negative = inhibition [4] | activity change, negative = inhibition [5]
COc1cccc(CNC(=O)CCc2nnc3n(Cc4ccc(F)cc4)c(=O)c4ccccc4n23)c1 | -14.6% | 4.81% | 0.981% | -8.18% | -4.12%
CCn1c(-c2ccccc2)nn(CC(=O)NCc2ccsc2)c1=O | -5.12% | -7.08% | -2.07% | -6.07% | 1.3%
C=C1CC[C@@H]2[C@](C)(CC[C@H](O)[C@@]2(C)CCC=C(C)C)[C@@H]1Cc1c[nH]c2ccccc12 | 0% | -3.02% | 0.88% | -16.7% | 2.65%
Cc1ccc(CNC(=O)c2ccc3c(=O)nc4c(-c5ccc(C)cc5)n[nH]n4c3c2)cc1 | -14% | 0% | -4.14% | -5.78% | -6.85%
CCC(C)NC(=O)c1ccc2c(=O)n(CCC(C)C)c3nn(Cc4ccccc4Cl)c(=O)n3c2c1 (stereo unspecified) | -2.41% | 2.81% | 0.897% | -2.46% | -3.7%
CCOC(=O)c1cc2n(n1)CC(C)(C(=O)NC1CCC(C)CC1)N(Cc1ccccc1C)C2=O (stereo unspecified) | 1.36% | 0.789% | -3.82% | -2.8% | -1.37%
Cc1ccc(C)c(N2CCN(S(=O)(=O)c3ccc4[nH]c(=O)[nH]c4c3)CC2)c1 | 12.4% | 0% | 10.9% | -1.15% | 5.49%
Cc1ccc(NC(=O)CCc2nnc3n(CCc4ccccc4)c(=O)c4ccccc4n23)cc1C | 4.23% | 0% | 9.95% | 4.64% | 1.93%
COC(=O)c1ccnc(-c2cc(C(=O)NCCc3ccccc3)ccn2)c1 | 4.75% | 5.71% | 4.22% | -9.77% | -2.33%
CC(=O)OC/C(=C/C(=O)O)CC[C@@H]1C(CO)=CC[C@@H]2C(C)(C)CCC[C@@]12C | 0% | -3.08% | 1.84% | -19% | -3.4%
NC(=O)c1nc(Nc2ccccc2)sc1NC(=O)C1CCCCC1 | -4.58% | -15% | 1.61% | -29.8% | -5.79%
CCCn1c(=O)c2ccc(C(=O)NC(C)C)cc2n2c(=O)n(CC(=O)c3ccc(Cl)cc3)nc12 | 2.29% | 0.673% | 7.7% | 1.62% | 2.61%
CN(Cc1ccccc1)S(=O)(=O)c1ccc2c(c1)n(C)c(=O)n2C | -3.57% | 0.938% | -1.11% | 5.68% | -2.46%
CC1(C(=O)NC2CCCCCC2)Cn2c(ccc2-c2ccco2)C(=O)N1Cc1ccccc1F (stereo unspecified) | -5.83% | 4.83% | -2.39% | -13.3% | -2.56%
O=C(O)C1CC2(CCN(C(=O)CCCn3ccnc3)CC2)CN1 (stereo unspecified) | -5.42% | -7.35% | -3.86% | -7.59% | -5.38%
Cc1ccc(Cl)cc1N1CCN(S(=O)(=O)c2cc3[nH]c(=O)[nH]c3cc2Br)CC1 | 0.787% | 5.86% | 4.16% | 11.7% | -0.839%
O=C(Cn1nc2n(Cc3ccccc3)c(=O)c3ccccc3n2c1=O)Nc1ccccc1F | -2.11% | 5.34% | 0.98% | 1.3% | 0.741%
Clc1ccc2ncc(-c3cccc(NC4CCNC4)n3)n2c1 (stereo unspecified) | – | 3.14% | – | -14.7% | -3.95%
CCc1cc2c(cc3n2CC(C)(C(=O)NC2CCCCC2)N(Cc2ccc(OC)cc2)C3=O)s1 (stereo unspecified) | -10.7% | 0.3% | -9.58% | -7.28% | -10.3%
CCc1c(C)[nH]c2c1C(=O)C(CN1CCOCC1)CC2 (stereo unspecified) | -22% | 9.62% | 6.47% | -6.13% | -4.42%
O=C(CC1CCN(C(=O)c2ccc(F)cc2)C1)NCc1ccccc1 (stereo unspecified) | -6.66% | -13.9% | -3.54% | -14.5% | -9.69%

SMILES | activity change, negative = inhibition [1] | activity change, negative = inhibition [2] | activity change, negative = inhibition [3] | activity change, negative = inhibition [4] | activity change, negative = inhibition [5]
Cc1ccc(N(C)C(=O)Cn2c(=O)oc3cc(S(=O)(=O)N4CC(C)CC(C)C4)ccc32)cc1 (stereo unspecified) | -5.8% | 0% | 9.72% | 9.34% | 4.28%
COc1cc(NC(=O)c2cccc(-n3cc(NC(=O)Nc4cccc(C)c4)cn3)c2)cc(OC)c1OC | 0.694% | 9.44% | -9.32% | -8.18% | 2.61%
NC(=O)CNCCC(c1ccccc1)c1ccccc1 | 8.71% | 15.8% | 13.1% | -3.48% | 3.04%
CCCn1c(=O)c2ccc(Cl)cc2n2c(=O)n(Cc3cccc(OC)c3)nc12 | 2.83% | 3.91% | 12.2% | 1.96% | 4.53%
CCn1nc(CNC(=O)Cc2ccccc2F)c2ccccc21 | 3.87% | 1.45% | 3.46% | 1.33% | 4.39%
O=c1[nH]c2ccc(S(=O)(=O)Nc3cccc(F)c3)cc2[nH]1 | 3.12% | 0% | 3.06% | 0.958% | -8.95%
C=CC(=O)Nc1cc(Nc2nccc(-c3cn(C)c4ccccc34)n2)c(OC)cc1N(C)CCN(C)C | -23.7% | 5.85% | -33.8% | -13% | -17.4%
CCC(NS(=O)(=O)c1ccc(C(=O)NC2CC2)cc1)c1cnn(C)c1 (stereo unspecified) | -4.51% | -4.91% | -2.14% | -4.42% | -10.9%
CCO/C([O-])=N/c1c[n+](N2CCOCC2)no1 | 10.1% | 13.7% | 5.25% | -6.76% | -0.428%
O=C1c2cnc(-c3cc4ccccc4o3)nc2OCCN1CC1CC1 | -19.3% | -17% | -17.7% | -20.8% | -12.1%
O=C(NCc1noc(-c2cccs2)n1)[C@H]1CNC[C@H](C(=O)N2CCCC2)C1 | -2.06% | 2.07% | 0.168% | -1.51% | -23.1%
Cc1ccc(CN2C(=O)c3cc(-c4cccs4)nn3CC2(C)C(=O)NC2CCCCCC2)cc1 (stereo unspecified) | 0.427% | 0% | 3.45% | 2.28% | -2%
COc1ccc(OC)c(CNC(=O)CC2C(=O)NCCN2CC=C(C)C)c1 (stereo unspecified) | -7.74% | -8.86% | -5.13% | -15.8% | 7.54%
CN1CC2(CCCN(C3CCN(C(=O)c4cnccn4)CC3)C2)OC1=O (stereo unspecified) | -2.74% | 0.603% | 3.12% | 0.966% | 5.35%
CCCn1c(=O)c2ccc(C(=O)NC(C)CC)cc2n2c(=O)n(CC(=O)NC(C)(C)C)nc12 (stereo unspecified) | 5.22% | 0% | 12% | 2.26% | 6.22%
CSc1ccc(-c2nc3c([nH]2)CC(C)(C)CNC3=O)cc1 | -6.2% | 0.89% | -3.75% | -9.27% | -0.576%
COC(=O)c1ncn2c1C(=O)N(Cc1cccc(OC)c1OC)C(C)(C(=O)NC1CCCC1)C2 (stereo unspecified) | 4.1% | 0% | 6.57% | 0.1% | 4.41%
CC1(C(=O)NC2CCCCC2)Cn2nc(-c3ccco3)cc2C(=O)N1c1ccc(F)cc1 (stereo unspecified) | -1.02% | 5.38% | -2.74% | -1.45% | -3.47%
CCCn1c(=O)c2ccc(Cl)cc2n2c(=O)n(CC(=O)c3ccc(F)cc3)nc12 | -1.31% | 0% | 11.1% | 1.18% | 6.62%
COc1ccc(OC)c(S(=O)(=O)N2CCC3(CC2)CC(CC(=O)N2CCCC2)CCO3)c1 (stereo unspecified) | -7.42% | 1.44% | -4.01% | -10.1% | -3.45%
